In PMC12434519 (ACS Medicinal Chemistry Letters, 2025):
Read-outs that look alike come from different tables or passages of the source.

Molecular target: SARS-CoV-2 NSP14 (Severe acute respiratory syndrome coronavirus 2, UniProt P0DTD1)
Assay: biochemical
[1] = LUM % inhibition, read-out: SARS-CoV-2 NSP14 inhibition: IC50
[2] = LUM % inhibition, read-out: SARS-CoV-2 NSP14 inhibition: Maximum response
[3] = fit of concentration-response curve
[4] = Hill slope of the concentration-response fit
[5] = maximum response, LUM % inhibition, read-out: SARS-CoV-2 NSP14 inhibition: Maximum response (%)
[6] = read-out: SARS-CoV-2 NSP14 inhibition: IC50
[7] = TDI-015051 series, retrospective VS set, biochemical MTase assay, read-out: Merged IC50

Row | Structure (SMILES) | IC50 [1] | Emax [2] | SARS-CoV-2 NSP14 inhibition: Hill slope [3] | SARS-CoV-2 NSP14 inhibition: Hill slope [4] | Emax [5] | IC50 [6] | IC50 [7]
1 | Cc1cc(C(=O)N2CC3(CCC(CNC(=O)C4CCCn5nccc54)O3)C2)cc(C)c1O (stereo not shown) [RU-0834192] | > 125 µM | 14.6% | 16.3 |  |  |  | 
2 | CC(CNC(=O)CN(C)S(=O)(=O)c1ccc(F)cc1)c1nc2ccccc2n1C(F)F (stereo not shown) [RU-0833909] | > 125 µM | 12.9% | 0.185 |  |  |  | 
3 | Cc1ccc(NC(=O)CN2C(=O)COc3ccc(S(=O)(=O)N4CCC(C)CC4)cc32)c(Cl)c1 [RU-0833887] | > 125 µM | 14.8% | 9.82 |  |  |  | 
4 | Cn1ccn2ncc(C(=O)NCc3ccc(CCNC(=O)c4ccc(O)cc4)cc3)c12 [RU-0834197] | 16.8 µM | 49.2% | 1.01 |  |  |  | 
5 | O=C(NC1CCOc2ccccc21)c1cccc(OCc2cn3ccccc3n2)c1 (stereo not shown) [RU-0833914] | > 125 µM | 26.6% | 0.523 |  |  |  | 
6 | O=C(NCc1ccc2c(c1)CN(C(=O)Cc1cccc(O)c1F)C2)c1c(F)cccc1F [RU-0834190] | 35.2 µM | 59.1% | 0.883 |  |  |  | 
7 | Cc1ccc(S(=O)(=O)NC[C@H]2CCCN(C(=O)[C@H](O)c3ccccc3)C2)cc1 [RU-0833633] |  |  |  | 1.32 | 6.04% | > 62.5 µM | 
8 | CC(NC(=O)NCc1cccc(NC(=O)c2cccc(F)c2)c1)c1ccc(N2CCCC2=O)cc1 (stereo not shown) [RU-0833938] | 37.2 µM | 78.2% | 1.25 |  |  |  | 
9 | CCc1ccccc1NS(=O)(=O)c1ccc2ncc(C(=O)NCc3cccnc3)c(O)c2c1 [RU-0833866] |  |  |  | 269 | 25.9% | > 125 µM | 
10 | O=C(CN1NC(=CCn2c(=O)oc3ccccc32)C=CC1=O)Nc1ccccc1F [RU-0833870] |  |  |  | 208 | 21.7% | > 125 µM | 
11 | O=C(CCn1nc2ccccn2c1=O)NCCc1c(F)cccc1F [RU-0833875] | > 125 µM | 14.9% | 17.4 |  |  |  | 
12 | Cc1cc(C(=O)NCC2(C)CCC(NC(=O)c3n[nH]c4cccnc34)C2)cc2cn[nH]c12 (stereo not shown) [RU-0834188] | 25.3 µM | 29.9% | 0.824 |  |  |  | 
13 | Cc1ccc(C(=O)NCc2nnc3cccnn23)cc1NC(=O)Cc1ccncc1 [RU-0833637] |  |  |  | 0.946 | 7.34% | > 62.5 µM | 
14 | O=C(NCc1cccc(NC(=O)c2n[nH]c3ncccc23)c1)c1ccc2c(n1)CCC2 [RU-0833940] | 14.9 µM | 128% | 1.15 |  |  |  | 
15 | Cc1cc(F)ccc1C(=O)NCC1CC2(CO1)CN(C(=O)c1cc(C)c3[nH]ncc3c1)C2 (stereo not shown) [RU-0834089] | > 125 µM | 16.6% | 1.51 |  |  |  | 
16 | Cc1c(CO)cccc1C(=O)NC[C@H]1CC[C@@H](NC(=O)c2ccc3cnn(C)c3c2)C1 [RU-0834162] | > 125 µM | 26% | 61.9 |  |  |  | 
17 | COc1ccccc1CNC(=O)c1cc2n(n1)CCCN(Cc1cccc(C)c1)C2=O [RU-0833879] | 27.3 µM | 59.4% | 1.2 |  |  |  | 
18 | O=C(NCCc1ccccc1Cl)c1cc2n(n1)CCCN(Cc1cccc(F)c1)C2=O [RU-0833878] | > 125 µM | 12.5% | 0.0847 |  |  |  | 
19 | CC(NC(=O)c1cnc2[nH]ncc2c1)C1CC(NC(=O)c2c(F)cc(O)cc2F)C1 (stereo not shown) [RU-0834147] | > 125 µM | 14.6% | 47.7 |  |  |  | 
20 | Cc1cccc(CNC(=O)c2cn(CC3CC(=O)N(Cc4ccccc4)C3)nn2)c1 (stereo not shown) [RU-0833892] | > 125 µM | 9.38% | 48.7 |  |  |  | 
21 | Cn1c(CNc2cccc(C(=O)NCc3cccc4cccnc34)c2)nnc1-c1ccncn1 [RU-0833656] |  |  |  | 1.1 | 9.23% | > 62.5 µM | 
22 | Cc1cc(C(=O)NCc2cccc(CNC(=O)C34CCC(CO)(CC3)C4)c2)cc2cn[nH]c12 [RU-0834169] | > 125 µM | 15.2% | 2.59 |  |  |  | 
23 | Cc1cc(C(=O)NCc2ccccc2CNC(=O)c2cncc(N(C)C)n2)cc2cn[nH]c12 [RU-0834177] | > 125 µM | 20.4% | 1.45 |  |  |  | 
24 | Cc1cc(C(=O)N2Cc3ccc(CNC(=O)c4ccc5[nH]ncc5c4)cc3C2)ncc1CO [RU-0834094] | > 125 µM | 66.7% | 0.683 |  |  |  | 
25 | COc1ccc(F)c(C(=O)NC(C)c2cccc(NC(=O)c3ccccc3)c2)c1OC (stereo not shown) [RU-0833919] | > 125 µM | 13.5% | 1.06 |  |  |  | 
26 | Cc1cc(CC(=O)NCC2CCC3(CN(C(=O)c4ccc5[nH]ncc5c4)C3)O2)ccc1F (stereo not shown) [RU-0834200] | 13.6 µM | 31.7% | 0.949 |  |  |  | 

Row | Structure (SMILES) | IC50 [1] | Emax [2] | SARS-CoV-2 NSP14 inhibition: Hill slope [3] | SARS-CoV-2 NSP14 inhibition: Hill slope [4] | Emax [5] | IC50 [6] | IC50 [7]
27 | O=C(N[C@@H]1CCOc2ccccc21)c1cccc(S(=O)(=O)Nc2ccccc2F)c1 [RU-0833676] |  |  |  | 0.925 | 3.31% | > 62.5 µM | 
28 | CC(Cn1ncc2ccccc2c1=O)NC(=O)Cn1nnc(-c2ccccc2)n1 (stereo not shown) [RU-0833913] | > 125 µM | 9.13% | 0.119 |  |  |  | 
29 | O=C(NC[C@@H]1CCC[C@H](CNC(=O)C2CCCc3ccnn32)C1)c1ccc2[nH]ncc2c1 (stereo partly shown) [RU-0834156] | > 125 µM | 12.9% | 23.9 |  |  |  | 
30 | O=C(CNC(=O)Cc1ccc(O)cc1)NCC(c1ccccc1Cl)c1c[nH]c2ccccc12 (stereo not shown) [RU-0833891] | > 125 µM | 12.1% | 20.8 |  |  |  | 
31 | O=C(NCC(O)CCNC(=O)c1ncc2ccccn12)c1ccc2[nH]ncc2c1 (stereo not shown) [RU-0834119] | > 125 µM | 12% | 13.9 |  |  |  | 
32 | Cc1c(F)ccc(C(=O)NCc2cccc(CNC(=O)c3cc(C)c(=O)n(C)c3)c2)c1C [RU-0834103] | > 125 µM | 23.2% | 1.68 |  |  |  | 
33 | CNc1ccc(C(=O)NCc2ccc(CNC(=O)c3nccn4cnnc34)cc2)cc1F [RU-0834185] | 35 µM | 66.7% | 1.91 |  |  |  | 
34 | Cc1cc(C(=O)NCC2CCN(C(=O)c3cnn4ccn(C)c34)CC2O)cc(C)c1O (stereo not shown) [RU-0834105] | > 125 µM | 16.2% | 10.9 |  |  |  | 
35 | O=C(NCC1CN(C(=O)c2ccc3[nH]ccc3c2)C1)c1cccc2cn[nH]c12 [RU-0833668] |  |  |  | 17.8 | 10.4% | > 62.5 µM | 
36 | Cc1c(S(=O)(=O)N2CCn3cncc3C2)cc(C(=O)NCc2cccc3cnccc23)n1C [TDI-014695, Cc1c(S(=O)(=O)N2CCn3cncc3C2)cc(C(=O)NCc2cccc3cnccc23)n1C] |  |  |  |  |  |  | 0.00249 µM
37 | Cc1c(C(=O)NCc2cccc3cnn(C)c23)cn(S(=O)(=O)c2ccccc2)c1C [TDI-015499, Cc1c(C(=O)NCc2cccc3cnn(C)c23)cn(S(=O)(=O)c2ccccc2)c1C] |  |  |  |  |  |  | 0.0392 µM
38 | Cc1cc(C(=O)NC2CC(C(C)NC(=O)c3ncn4ccccc34)C2)ccc1O (stereo not shown) [RU-0834137] | > 125 µM | 39.6% | 0.617 |  |  |  | 
39 | Cc1cc(F)cc(CC(=O)NCC2COC(CNC(=O)c3cccc4c3ncn4C)C2)c1 (stereo not shown) [RU-0834117] | > 125 µM | 10.3% | 49.4 |  |  |  | 
40 | O=C(NCc1nnc2ccccn12)Nc1ccnc2ccc(Oc3ccccc3)cc12 [RU-0833905] | > 125 µM | 41.5% | 0.577 |  |  |  | 
41 | O=C(NCc1ccc2c(c1)CN(C(=O)C(O)c1cccc(F)c1)C2)c1cc2cn[nH]c2cn1 (stereo not shown) [RU-0834150] | > 125 µM | 16.6% | 13.3 |  |  |  | 
42 | Cn1ccc2cc(S(=O)(=O)N3CCCC(C(=O)NCc4ccccc4Cl)C3)ccc21 (stereo not shown) [RU-0833888] | > 125 µM | 10.8% | 7130 |  |  |  | 
43 | O=C(NCC1COc2ccccc2O1)c1cccc(S(=O)(=O)N2CCCCCC2)c1 (stereo not shown) [RU-0833899] | > 125 µM | 11.5% | 11.5 |  |  |  | 
44 | O=C(NCc1ccc(C(=O)NC2CCCn3cnnc32)cc1)c1ccc2nccn2c1 (stereo not shown) [RU-0834142] | > 125 µM | 9.71% | 10.6 |  |  |  | 
45 | Cc1cc(CC(=O)N2CCCC(O)(CCNC(=O)c3c(C)ccc(C)c3C)C2)ccc1O (stereo not shown) [RU-0834191] | > 125 µM | 14.9% | 33.8 |  |  |  | 
46 | Cc1cc(C(=O)NC2CCC3(CC2)CC(NC(=O)c2cnn4ccn(C)c24)C3)cc2cn[nH]c12 (stereo not shown) [RU-0834152] | > 125 µM | 15.5% | 93.8 |  |  |  | 
47 | Cc1sc(C(=O)NCc2cccnc2N2CCCC2)cc1S(=O)(=O)N1CCn2nccc2C1 [TDI-014253, Cc1sc(C(=O)NCc2cccnc2N2CCCC2)cc1S(=O)(=O)N1CCn2nccc2C1] |  |  |  |  |  |  | 0.0957 µM
48 | Cc1cc(C(=O)NCCC2CCC(NC(=O)c3cccn4ccnc34)C2)ccc1O (stereo not shown) [RU-0834124] | 12.9 µM | 30.7% | 1 |  |  |  | 
49 | Cc1ccc(S(=O)(=O)N(C)CC(=O)Nc2ccnn2Cc2ccc(Cl)cc2)cc1C [RU-0833924] | > 125 µM | 14.4% | 19.5 |  |  |  | 
50 | COc1ccccc1CNC(=O)c1cc(S(=O)(=O)N2CCc3ccccc3C2)c(C)n1C [TDI-013289, COc1ccccc1CNC(=O)c1cc(S(=O)(=O)N2CCc3ccccc3C2)c(C)n1C] |  |  |  |  |  |  | 0.0141 µM
51 | Cc1cc(C(=O)N2CC3(CCC(CNC(=O)c4n[nH]c5ccccc45)O3)C2)cc2cn[nH]c12 (stereo not shown) [RU-0834175] | 21.6 µM | 64.7% | 0.895 |  |  |  | 
